Whole data set: some 33,000 sequences, median “E-score (-0.5 to 0.5)” near -0.01, cut for the highest 2% near 0.26. The list shows a part of the results.

The text below walks through data of the supplement of paper PMC3334620.

This experiment concerns the target Ste12 (UniProt P13574). Nature of the experiment: PBM E-score (8-mer binding enrichment) (E-score (-0.5 to 0.5)); higher = stronger / more preferred TF binding; most listed sequences are background and not binding sites. Particulars: protein concentration: 200 nM; construct: GST-DNA-binding domain. The gist of the method: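 For each ungapped eight-base word taken together with its reverse complement, the Universal PBM Analysis Suite assigned an E-score. Binding data came from GST-tagged yeast transcription factors, applied at about 100-200 nM, on universal all-10-mer Agilent arrays made double-stranded by primer extension. Fluorescent anti-GST marked bound protein, and scans were normalised with masliner.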
For CAAAACGG, the “PBM E-score” value came out at 0.302.

Consider GCTCTTCC, for which the “PBM E-score” value is -0.115. For AAACCGAC, the “PBM E-score” value came to 0.198. The value for AAAGTGGT was 0.00299; that for ACACATAC was -0.134; that for ATCAAGCC was 0.0686.

Take TCATAAAA: the “PBM E-score” value is 0.231.

Take CCGCGGGC: the “PBM E-score” value is 0.179.

For the sequence CTAAATGA, the “PBM E-score” value is -0.0349. The value for AAGCCCTC was -0.0807. With CTTCATCC, the “PBM E-score” value turned out to be 0.0361. For the sequence CTCGAGCA, the “PBM E-score” value was -0.0319. On to CGGCCTTA, for which the “PBM E-score” value was 0.0449.

As for ACAAGTGC, the “PBM E-score” value was -0.149. AGAATCAT: the “PBM E-score” value was -0.00992. Under GCGTGGCC stands -0.116; under ATTGGTAA, 0.143. For AGCGATGC, the “PBM E-score” value was -0.23. Consider ACGGGGAA, for which the “PBM E-score” value was found to be 0.13. As for AAACCAGA, the “PBM E-score” value stood at 0.0662. Take ACAGATGA: the “PBM E-score” value was -0.0786.

As to AACACCCT, the “PBM E-score” value is -0.0687. The value for GGGAAACC was 0.0292. AAATCCGG: the “PBM E-score” value was determined as 0.0201. Consider GAACCGAA, for which the “PBM E-score” value is -0.113. In the case of CAAAAGCA, the “PBM E-score” value was 0.0531. On to GTGAAAAC, for which the “PBM E-score” value turned out to be 0.0815. The value for AGCGAAGC was -0.267. For the sequence AAGTTGAC, the “PBM E-score” value was found to be 0.0703.

With CATCACCC, the “PBM E-score” value is -0.0102. The value for GGAGCAAC was -0.0379. Under ACAGCGCT stands 0.132; under AACTTACG, -0.172.

For CAGGAAAC, the “PBM E-score” value is -0.0383. The value for GTACTATA was 0.0549; that for CCGAGACC was 0.0929.

For TTAATCAA, the “PBM E-score” value worked out at 0.212. The value for ACAGTCTA was -0.156; that for CCACTTGA was 0.198. Take TAGCACTA: the “PBM E-score” value was -0.138. Under GGGAATAC stands -0.0655; under GGATGCCA, -0.217; under GGTCAGTA, -0.179. For the sequence GCTATTAC, the “PBM E-score” value is 0.165.

As to CTAAACAA, the “PBM E-score” value came to 0.16. For the sequence ATCCCCCG, the “PBM E-score” value amounted to 0.0216. The value for ACCAACCT was 0.0089; that for CGAGGGGA was 0.0767. CGTTAATC: the “PBM E-score” value was determined as 0.0362. The value for GGTGATAA was 0.17; that for AGGTAAAT was 0.159. Consider CGGGGCTC, for which the “PBM E-score” value is -0.0955. As to CTCACTAA, the “PBM E-score” value came to 0.107. Regarding ACCATCAA, the “PBM E-score” value was -0.152. CCGTCAGC: the “PBM E-score” value was -0.115. For CTAATATC, the “PBM E-score” value is 0.0817.

In the case of GCCAGATA, the “PBM E-score” value is -0.0626.

Consider ACGTCATA, for which the “PBM E-score” value was -0.0167. Regarding CCTATAGC, the “PBM E-score” value is -0.258. Regarding AGCATACG, the “PBM E-score” value stood at 0.00544. Turning to ATCCCACG, the “PBM E-score” value is -0.107. On to CTTAGGTC, for which the “PBM E-score” value turned out to be 0.0752. For AACTGCCA, the “PBM E-score” value is -0.104. Regarding AGCGCATA, the “PBM E-score” value is 0.0217. Under CGCTCAGA stands 0.0473; under CCTTCGGA, -0.136. Regarding AATACCGG, the “PBM E-score” value came out at 0.0301. For CGCAAGAA, the “PBM E-score” value is 0.0941. Take CCGAGACG: the “PBM E-score” value came to 0.0139. Under AACTGCCG stands 0.00429; under GCAAGAAA, 0.173; under ATCGTATC, 0.0584.

Regarding TAAAGCTA, the “PBM E-score” value was -0.18. For the sequence CGCCGCTA, the “PBM E-score” value was found to be 0.0728. Under AGTGCCCA stands -0.0639; under AGTCCTTG, -0.264. As to GATGGCAA, the “PBM E-score” value was determined as 0.0154. GGACGGAC: the “PBM E-score” value is -0.121. As for GCAGGGCC, the “PBM E-score” value is -0.172.

As to AACGGTCA, the “PBM E-score” value was determined as 0.119. As to CATGGGAC, the “PBM E-score” value stood at 0.0343.

With CGACTTTC, the “PBM E-score” value was determined as 0.0311.

On to GCACAGTA, for which the “PBM E-score” value was -0.104.

For ACGAAATA, the “PBM E-score” value was -0.0859.

For the sequence GCCGTACC, the “PBM E-score” value was -0.029. Regarding CAGGCCGG, the “PBM E-score” value was -0.246. Regarding AACCACAG, the “PBM E-score” value was -0.0528. The value for GTCGAGGA was -0.25. Take ACCATGCC: the “PBM E-score” value is -0.0505. With TAGATACA, the “PBM E-score” value came out at 0.00707.

As to AAGGCGTC, the “PBM E-score” value was -0.0407. Under GAAATATA stands 0.284; under CAAGAGAG, -0.214. For CGCCTGTC, the “PBM E-score” value is -0.223.
